Experimental data reported in the RNAGym collection of RNA variant scans (doi:10.7554/elife.90254).
The source gives no read counts; variants with many changes may rest on few reads.

B1: OR4K15 (parent)
chain: GUUAACGGUCAUAGGCCAUGGAAACUAGGAGCACCAUUUCGCUGCCAGUGAAGAAAUGAACAAAGAAAAUCUGGGCCAGGCAGGCAUCAAAAGAAAUAGUCUUGCGCUCAACCAGAAAGUCUGUAAUCAUUUUAAGGGUA

Variants of: B1
Assay: self-cleavage, relative activity (ratio to wild type); higher = more cleavage; in vitro, sequencing; the parent is a self-cleaving ribozyme

Variant	self-cleavage
GUUAACGGUCAUAGGCCAUGGAAACUUGGAGCACCAUUUCGCUGCCAGUGAAGAAAUGGACAAAGAAAAUCUGGGCCAGGCAGGCAUCAGAAGAAAUAGUCUUGCGCUCAACCAGAAAGUCUGUAAUCAUUUUAAGGGUA	0.93
GUUAACGGUCAUAGGCCAUGGAAACUUGGAGCACCAUUUCGCUGCCAGUGAAGAAAUGAACAAAGAAAAUCUGGGCCAGGCAGGCAUCCAAAGAAAUAGUCUUGCGCUCAACCAGAAAGACCGUAAUCAUUUUAAGGGUA	1.38
GUUAACGGUCAUAGGCCAUGGAAACUUGGAGCACCACUUCGCUGCCAGUGAAGAAAUGAACAAAGAAAAUCUGGGCCAGGCAGGCAUCAAAAGAGAUAGUCUUGCGCUCAACCAGGAUGUCUGUAAUCAUUUUAAGGGUA	0.15
GUUAACGGUCAUAGGCCAUGGAAACUGGGAGCACCAUUUCGCUGCCAGUGAAGAAAUGAACAAAGAAAACCUGGGCCAGGCAGGCAUCAAAAGAAAUAGUCUUGCGCUCAACCUGAAAGUCUGUAACCAUUUUAAGGGUA	0.04
GUUAACGGUCAUAGGCCAUGGAAACUGGGAGCACCAUUUCGCUGCCAGUGAAGAAAUGAACAAAGAAAAUCUGGGCCAGGCAGGCAUCAAAAGAAAUAGUCUCGCGCUCAACCAGAAAGCCUGUAAUCAUUUUAAGGGUA	0.68
GUUAACGGUCAUAGGCCAUGGAAACUGGGAGCACCAUUUCGCUGCCAGUGAAGAAAUGAACAAAGAAAAUCUGGGCCAGGCAGGCAUCAAAAGAAAUAGUCUCACGCCCAACCAGAAAGUCUGUAAUCCUUUUAAGGGUA	0.01
GUUAACGGUCAUAGGCCAUGGAAACUUGGAGCACCAUUUCGCUGCCAGUGAAGAAAUGAACAAAGAAAAUCUGGGCCAGGCGGGCAUCAAAGGAAAUAGUCUUGCGCUCAACCAGAAAGUCUGUAAUCAUUUUAGGGGUA	0.41
GUUAACGGUCAUAGGCCAUGGAAACUGGGAGCACCAUUUCGCUGCCAGUGAAGAAACGAACAAAUAAAAUCUGGGCCAGGCAGGCAUCAAAAGAAAUAGUCUUGCGCUCAACCAGAAAGUCUGUAAUCAUCUUAAGGGUA	0.97
GUUAACGGUCAUAGGCCAUGGAAACUUGGAGCACCAUUUCGCUGCCAGUGAGGAAAUGAACAAAGAAAAUCUGGGCCAGGCAGGCAUCAAAAGAAAUAGUCUUGCGCUCAACCAGAAAGUCUGUAAUCACUUUAAGGGUA	1.15
GUUAACGGUCAUAGGCCAUGGAAACUGGGAGCACCAUUUCGCUGCCAGCGAAGGAAUGAACAAAGAAAAUCUGGGCCAGGCAGGCAUCAAAAGGAAUAGUCUUGCGCUCAACCAGGAAGUCUGUAAACAUUUUAAGGGUA	0.33
GUUAACGGUCAUAGGCCAUGGAAACUUGGAGCACCAUUCCGCUGCCAGUGAAGAAAUGAACAAAGAGAAUCUGGGCCAGGCAGGCAUCAAAAGAAAUAGUCUUGCGCUCAACCAGAAAGUCUGUAAUCAUUUUAAGGGUA	1.39
GUUAACGGUCAUAGGCCAUGGAAACUGGGAGCACCAUUUCGCUGCCAGUGAAGAAAUGAACAAAGAAAACCUGGGCCAGGCAGGCAUCAAAAGAAAUAGUCUUGCGCUCAACCAGAAAGUCUGUAAUCUUUUUAAGGGUA	0.26
GUUAACGGUCAUAGGCCAUGGAAACUGGGAGCACCAUUUCGCUGCCAGUGAAGAAAUGAACAAAGAAAAUCUGGGCCAGGCAGGCAUCAAAAGAAACAGUCUUGCGCUCAACCAGAUAGUCUGUAAUCAUUUUAAGGGUA	1.28
GUUAACGGUCAUAGGCCAUGGAAACUGGGAGCACCAUUUCGCCGCCAGUGAAGAAAUGAACAAAGAAAAUCUGGGCCAGGCAGGCAUCAAAAGAAAUAGUCUUGCGCUCAACCGGAAAGUCUGUAAUCAUUUUAAGGGUA	0.49
GUUAACGGUCAUAGGCCAUGGAAACUUGGAGCACCAUUUCGCUGCCAGUGAAGAAAUGAACAAAGGAAAUCUGGGCCAGGCUGGCAUCAAAAGAAAUAGUCUUGCGCUCAACCAGAAAGUCUGUAAUCAUUUUAAGGGUA	0.23
GUUAACGGUCAUAGGCCAUGGAAACUUGGAGCAUCAUUUCGCUGCCAGUGAAGAAAUGAACGAUGGAAAUCUGGGCCAGGCAGGCAUCAAAAGAAAUAGUCUCGCGCUCAACCAGAAAGUCUGUAAUCAUUUUAAGGGUA	0.59
GUUAACGGUCAUAGGCCAUGGAAACUUGGAGCACCAUUUCGCUGCCAGUGAAGAAAUGAACAAAGAGAAUCUGGGCCAGGCAGGCAUCAAAAGAAUUAGACUUGCGCUCAACCAGAAAGUCUGUAAUCAUUUUAGGGGUA	0.37
GUUAACGGUCAUAGGCCAUGGAAACUGGGAGCACCAUUCCGCUGCCAGUGAAGAAAAGAGCAAAGAAAAUCUGGGCCAGGCAGGCAUCAAAAGAAAUAGUCUUGCGCUCAACCAGAAAGUCUGUAAUCAGUUUAAGGGUA	0.87
GUUAACGGUCAUAGGCCAUGGAAACUGGGAGCACCAUUUCGCUGCCAGUGAAGAAACGAACAAAGAAAAUCUGGGCCAGGCAGGCAUCAAAAGAAAUAGUCUUGCGCUCAACCAGAAAGUCUGUAAUCAUUUUAAGGGUG	1.21
GUUAACGGUCAUAGGCCAUGGAAACUGGGAGCACCAUUACGCUGCCAGUGAAGAAAUGAACAAAGAAGAUCCGGGCCAGGCAGGCAUCAAAAGAAAUAGUCUUGCGCUCAACCAGAAAGUCUGUAAUCAUUUUAAGGGUA	0.77
GUUAACGGUCAUAGGCCAUGGAAACUUGGAGCACCAUUUCGCUGCCAGUGAAGAAAUGAACUGAGAAAAUCUGGGCCAGGCAGGCAUCAAAAGAAAUAGUCUUGCGCUCAACCAGAUAGUCUGUAAUCAUUUUAAGGGUA	1.03

Variant	self-cleavage
GUUAACGGUCAUAGGCCAUGGAAACUUGGAGCACCAUUUCGCUGCCAGUGAAGAAAUGAACAAAGAAAAUCUGGGCCAGGCAGGCAUCAAAGGAAAUAGUCUUGCACUCAACCAGAAAGUCUGUAAUCAUUUUAAGGGUA	0.02
GUUAACGGUCAUAGGCCAUGGAAACUUGGAGCACCAUUUCGCUGCCAGUGAAGAGAUGAACAAAGAAAAUCUGGGCCAGGCAGGCAUCAAAAGAAAUAGUCUUGCGCUCAACCAGAAAGUCUGUAGUCAUUUUAAUGGUA	1.9
GUUAACGGUCAUAGGCCAUGGAAACUUGGAGCACCAUUUCGCUGCCAGUGGAGAAAUGUACAAAGAAAAUCUGGGCCAUGCAGGCAUCAGAAGAAAUAGUCUUGCGCUCAACCAGAAAGUCUGAAAUCAUUUUAAGGGUA	0.12
GUUAACGGUCAUAGGCCAUGGAAACUUGGAGCACCAUUUCGCUGCCAGUGAAGAAAUGAUCAAAGAAAAUCUGGGCCAGGCAGGCACCAAAAGAAAUAGUCUUGCGCUCAACCUGAAAGUCUGUAAUCAUUUUAAGGGUA	0.09
GUUAACGGUCAUAGGCCAUGGAAACUUGGAGCGCCAUUUCGCUGCCAGUGAAGAAAUGAACAAAGAGAAUCUGGGCCAGGCAGGCAUCAAAAGGGAUGGUCUUGCGCUCAACCAGAAAGUCUGUAAUCAUUUUAAGGGUA	2.73
GUUAACGGUCAUAGGCCAUGGAAACUGGGAGCACCAUUCCGCUGCCAGUAGAGAAAUGAACAGAGAAAAUCUGGGCCAGGCAGGCAUCAAAAGAAAUAGUCUUGCGCUCAACCAGGAAGUCUGUAAUCAUUUUAAGGGUA	0.34
GUUAACGGUCAUAGGCCAUGGAAACUGGGAGCACCAUUUCGCUGCCAGAGAAGAAAUGAACAAAGAAAAUCUGGGCCAGGCAGGCAUCAAAAGAAGUAGUCUUGCGCUCAACCAGAAAGUCUGUAGUCAUUUUAAGGGUA	0.73
GUUAACGGUCAUAGGCCAUGGAAACUGGGAGCACCAUUUCGCUGCCAGUGAAGAAAUGAACAAAGAAAAUCAGGGCCAGGCAGGCAUCAAAAGAAAUAGUCUUGUGCUCAACCAGAAAGCCUGUAAUCAUUUUAAGGGUA	0.01
GUUAACGGUCAUAGGCCAUGGAAACUGGGAGCACCAUUUCGCCGCCAGUGAAGAAGUGAACAAAGAAAAUCUGGGCCAGGCAGGCAUCAAAAGAAAUAGUCUUGCGCUCAGCCAGAAAGUCUGUAAUCAUUUUAAGGGUA	0.04
GUUAACGGUCAUAGGCCAUGGAAACUGGGAGCACCAUUUCGCUGCCAGUGAAGAAAUGAACAAAGAAAAUCUGGGCCAGGCAGGCAUCAAAAGAAAUAGUCUUGCGCUCAACCAGAAAGUCUGUAAUCAUCUAAAGGGUA	0.51
GUUAACGGUCAUAGGCCAUGGAAACUUGGAGCACCAUUUCGCUGCCAGUGAAGAGAUGAACAAAGAAAAUCUGGGCCAGGCAGGCAUCAAAAGAAAUAGUCUUGCGCUCAACCAGAGAGUCUGUAAUCAUUUUAAGGGUA	1.68
GUUAACGGUCAUAGGCCAUGGAAACUUGCAGCACCAUUUCGCUGCCAGUGAAGAAAUGAACAAAGAAAAUCUGGGCCAGGCAAGCAUCAAAAGAAAUAGUCUUGCACUCAACCAGAAAGUCUGUAAUCAUUCUAAGGGUA	0.01
GUUAACGGUCAUAGGCCAUGGAAACUUGGAGCACCAUUUCGCUGCCAGUGGAGAAAUGAACAAAGAAAAUCUGGGCCAGACAGGCAUCAAAAGAAAUAGUCUUGCGCUCAACCAGAAAGUCUGUAAUCAUUUUAAGGGUA	0.21
GUUAACGGUCAUAGGCCAUGGAAACUGGGAGCACCAUUUCGCCGCCAGUGAAGAAAUGAACAAAGAAAAUCUGGGCCAGGCAGGCAUCAAAAGAAAUAGUCCUGCGCUCAACCAGAAAGUCCGUAAUCAUUUUAAGGGUA	0.82
GUUAACGGUCAUAGGCCAUGGAAACUUGGAGCACCAUUUCGCUGCCAGUGAAGAAAUGAACAAAGAAAAUCUGGGCCAGGCAGGCAUCAAAAGAAAUAGUCUUGCGCUCAACCAGAGAGUCUGUGAUCAUUUUAAGGGUA	0.57
GUUAACGGUCAUAGGCCAUGGAAACUUGGAGCACCAUUUCGCUGCCAGUGAGGAAAUGAACAAAGAAAAUCUGGGCCAGGCAGGCAUCAAAGGAAAUAGUCUUGCGCUCAACCAGAAGGUCUGUAAUCAUUUUAAGGGUA	1.23
GUUAACGGUCAUAGGCCAUGGAAACUUGGAGCACCAUUUCGCUGCCAGUGAAGAAAUGAACAAAGAAAGUCUGGGCCUGGCAGGCACCAAAAGAAAUAGUCUUGCGCCCAACCAGAAAGUCUGUAAUCAUUUUAAGGGUA	0
GUUAACGGUCAUAGGCCAUGGAAACUGGGAGCACCAUCUCGCUGCCAGUGAAGAAAUGAACAAAGAAAACCUGGGCCAGGCAGGCAUCAAAAGAAAUAGUCUUGCGCUCAACCAGAAAGUCUGUAAUCAUUUUAAGGGUA	0.11
GUUAACGGUCAUAGGCCAUGGAAACUUGGAGCACCAUUUCGCUGCCAGUGAAGAAAUGAACAAAGAAAUUCUGGGCCAGGCAGGCAUCAGAAGAAAUAGUCUUGCGCUCAACCAGAAAGUCUGUAAUCGUUUUAAGGGUA	0.57
GUUAACGGUCAUAGGCCAUGGAAACUGGGAGCACCAUUUCGCUGCCAGUGAAGAAAUGAACAAAGAAAAUCUGGGCCAGGCAGGCAUCAAAAGAAAUAGUCCUGCGCUCAACCAGAAAGUCUGUAAUCAUCUUAAGGGUA	1.99
